Experimental data taken from the supplement of paper PMC11417369.
± gives the standard deviation of the averaged measurements. Some of the results follow.

System: PfAP2-G AP2 domain (GST-tagged)
Test: gcPBM binding intensity (ln(normalized median fluorescence intensity)); higher = stronger DNA binding
How it was run: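 After 1 h on an Agilent 4 × 180k array of primer-extended double-stranded 36-bp intergenic genomic probes and negative controls, bound GST-tagged P. falciparum DNA-binding domains were detected with Alexa488 anti-GST antibody and scanned at 488 nm. The domains had been expressed in E. coli, and binding took place in 1× PBS with 1% milk, 0.2 mg/ml BSA, 0.5% salmon testes DNA and 0.03% Triton X-100. Binding intensity is the highest Masliner-normalised natural-log median intensity across replicate spots of either probe orientation.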

Row | Sequence | gcPBM binding intensity (ln)
1 | AAAAAAAAAAAAAAAAAAAAAAAAAAAATACGAAAG [GTGCAC_negctrl_site729] | 10.9 ± 0.48
2 | AATCATTTATTGATGGTGCAATATACCATCTAATGA [GTGCAC_site9440] | 10.05 ± 0.064
3 | TATATTAAACTTTGCACACATAATTTAACTACAAAG [CACACA_site3441] | 10.2 ± 0.18
4 | AAAAAAAAAAAACACACACACACACCCAAATATATA [CACACA_site150] | 10.06 ± 0.085
5 | CATAATACATATAACACACACAATTATACATAAAAT [CACACA_site3233] | 10.1 ± 0.13
6 | TTTTGAAAAAATTTTTATAAAAGAATAAAATTATTA [XGTACX_negctrl_site570] | 9.66 ± 0.16
7 | AATATTTTACAATACACATGCAAATAATATTCTAAA [TGCATGCA_site618] | 9.845 ± 0.021
8 | ATTTCTATAAAAATAATCTACATTTTTTTTTTTTTT [CACACA_negctrl_site917] | 9.57 ± 0.19
9 | TATATACATATATATATATGTATAGATAGATACATT [CACACA_negctrl_site1511] | 9.74 ± 0.11
10 | TAACCACAATTTTAATGTACATATATATTTATATAT [XGTACX_site8968] | 11 ± 0.54
11 | TAAAAATGGAAACACACACACATAAATATATTTTAT [CACACA_site2513] | 10.05 ± 0.035
12 | TTTTTCCATATTGTAGCATGCAGTATATATATCATG [TGCATGCA_site530] | 9.92 ± 0.014
13 | TCTCATTTTCCCTAAAAAAAAAAATAAATAAAAATA [TGCATGCA_negctrl_site580] | 9.82 ± 0.32
14 | AATGGGTTACACATATGTACATAAAATATAAAAAAT [XGTACX_site3440] | 11.4 ± 0.84
15 | ATATTATTTATGTATGCATGCGGCGAAATGGGCTTG [TGCATGCA_site28] | 10.3 ± 0.2
16 | ATGCTTTTGTCATGTGCACACACGTATATATTATAT [CACACA_site4163] | 10.5 ± 0.18
17 | TTTTATCGATATATCTGTACATATTACTTATAATAA [XGTACX_site57] | 11 ± 0.65
18 | TGCTATAATTTATATACACACAAATATATACTCATA [CACACA_site6111] | 9.98 ± 0.11
19 | TATAACTATTTATAATGTACTCATGTATAATTATAT [XGTACX_site7913] | 11.3 ± 0.88
20 | TTAATTTATTTATGCACACATATATAATTACACATA [CACACA_site4544] | 10.1 ± 0.27
21 | TTTATATATTATATAAATATTATTATACTTTAAATA [TGCATGCA_negctrl_site236] | 9.635 ± 0.021
22 | ACATGTATTTATAAGAGTACATATGTGTGCATGTTT [XGTACX_site7946] | 11.4 ± 0.7
23 | TTTTTTTCCTTATCTATATATAATCAAATTTTCTAC [CACACA_negctrl_site867] | 9.855 ± 0.064

Row | Sequence | gcPBM binding intensity (ln)
24 | AACTTTTAGAAGAACACACACATATAGATTATGACC [CACACA_site6256] | 10.2 ± 0.014
25 | TTATAACAAATATAGAGTACTAAAATTTTACGTTAT [XGTACX_site1410] | 11 ± 0.52
26 | TTTATAATATACATAACACACAATTATTATTTCTTA [CACACA_site3624] | 9.68 ± 0.085
27 | AAGGTTATTTATATATGTACTTAATATATATATATG [XGTACX_site886] | 11.1 ± 0.75
28 | TCGAACATTAACATAACACACATATATATATATATA [CACACA_site2900] | 10.4 ± 0.95
29 | TATATATATATAACATGTACATAAAATACATTTATA [XGTACX_site7370] | 11 ± 0.72
30 | ACCATCCTTAATACTTATTTTTTCACAATTAAGTAA [GTGCAC_negctrl_site269] | 10.5 ± 0.36
31 | TTTTTTTTTTCTTGTTGTACTTTTAATAATTCATAT [XGTACX_site4704] | 11.5 ± 0.93
32 | TTATTAAAAAAAATATGTACTCACAATATAATATAT [XGTACX_site3738] | 11.4 ± 0.97
33 | GAAATTTTTAAAAAGGTGCTTTTAACAAAAATTATT [GTGCAC_site9687] | 9.99 ± 0.16
34 | TTAGCAACTATTACTACACACATTTGTATATAATTT [CACACA_site1591] | 10.04 ± 0.092
35 | AAGGATATAAAAAAACGTACGTACGATAATATAATT [XGTACX_site1292] | 11.6 ± 0.91
36 | AAAAAAAAAAAAAGATGTACATATATTTTTATTATA [XGTACX_site654] | 11.4 ± 0.96
37 | AAGTTTTCTTACAGATGTACTTTTTAAAAATAAACT [XGTACX_site6632] | 11.4 ± 0.92
38 | ATATATATCTATATTTGTACATATTACATTCAAGTT [XGTACX_site1749] | 10.9 ± 0.4
39 | TTTAGGAAAGGCGGCACACATTTATATATTTATTTA [CACACA_site5931] | 9.98 ± 0.042
40 | AGTATTTTAATTTCAGTGCATTTTATTCTATAATTA | 10.1 ± 0.18
41 | AAAAAAAAAAAAAATGCATGTGCGTAAATAATAATA [TGCATGCA_site793] | 10.2 ± 0.19
42 | CACAAAAAAGTTCATACACACAACATATTTATATAT [CACACA_site2887] | 10.09 ± 0.035
43 | ATCATTTTTTATGCGTGTACATAAATTTATTAGGTT [XGTACX_site2786] | 11.4 ± 0.85
44 | TTTTTTGTTAAACCGGTGCATATAAATATATATATA [GTGCAC_site9989] | 10.1 ± 0.42
45 | TAATTATTACACGGTATTATATATAATATGTTAAAA [GTGCAC_negctrl_site134] | 9.9 ± 0.042
46 | TTTTTTTTTTTTCTGTGTACATATATAATATATATA [XGTACX_site1592] | 11.4 ± 0.98

Row | Sequence | gcPBM binding intensity (ln)
47 | ATATCTATATTTTAAAGTACGTAGTAAAAAGAAAAA [XGTACX_site4323] | 11 ± 0.69
48 | TTGTAATGATATATTTGTACTTAATATAATTGTATA [XGTACX_site2748] | 10.9 ± 0.65
49 | AATAAATTGAAACACACACACACATATATATATATA [CACACA_site848] | 10.2 ± 0.48
50 | TTATGTCGTAAATACACACATACATATACATACACA [CACACA_site1374] | 10.2 ± 0.3
51 | TTGTCACTAATAGATGCATGCAATCATTCCATTTTT [TGCATGCA_site938] | 9.86 ± 0.071
52 | ATATAAAAATACAGGTGTACATTTTTTCATATTTAT [XGTACX_site6959] | 11.3 ± 0.74
53 | TATTCTTATCTTACCACACACAATGTACGAAAAGAT [CACACA_site6296] | 11 ± 0.65
54 | CAATATTATATTACTTGTACACATATGTAGTTTCGA [XGTACX_site8945] | 11.4 ± 0.64
55 | TTTCCCATAGGAAAAACACACATATATTATATATAA [CACACA_site1981] | 9.825 ± 0.049
56 | TAACAAAACATAGATTGTACATATTATAAATGTATA [XGTACX_site1543] | 10.8 ± 0.54
57 | GTTACATACCTATACACACACATATATAAATAAATA [CACACA_site6549] | 10.2 ± 0.18
58 | TTATTATGTATATATGCACACAATACCCAAAACAAC [CACACA_site80] | 10.7 ± 0.43
59 | TAATATATATATAATACACACTATTTTAATCACATA [CACACA_site4849] | 9.84 ± 0.014
60 | ATGTACTATGATAATGCATGCAATAATACATTTTTA [TGCATGCA_site318] | 10.9 ± 0.82
61 | GAAAATATTTCTATCTGTACTTATTTATATATATAT [XGTACX_site7317] | 11.6 ± 1.1
62 | AAAAATAATCATAGTAGTACAAAAAAAAAAAAAAAA [XGTACX_site3736] | 11.3 ± 1.1
63 | TACGTAAATTCTAATACACACTATAGGATATTCTGC [CACACA_site7248] | 9.81 ± 0.099
64 | TTTATTGCTCTATATGCACACCTTAATTCTTCATTT [CACACA_site8682] | 10.03 ± 0.021
65 | GAAGATTTATCTTGCACACGCAAAAAAAAAAAAAAA [CACACA_site154] | 9.91 ± 0.42
66 | TTCTATATATTATATGCATGTAAAACATATTAAAAT [TGCATGCA_site662] | 9.87 ± 0.12
67 | TTTTTATGAAAATAAACACACGATTTATTATATATA [CACACA_site1311] | 9.715 ± 0.007
68 | TGCATGTAATTTTTGTGTCCACATAAAATATTTAAT [XGTACX_site5652] | 11.6 ± 1
69 | TTTTTCAATTGTAGTGGTACAGATATAATTATCTCT [XGTACX_site5500] | 11.4 ± 0.88

Row | Sequence | gcPBM binding intensity (ln)
70 | ATATGTACAAGTTATACACACATGTACAGTTATATA [CACACA_site6706] | 11.6 ± 0.91
71 | TTTAACATTTCAGATGTGCACATTTTCCGAACCAGT | 10.7 ± 0.47
72 | TTACATACATACAAGTGTACGCATATATTAATATTA [XGTACX_site4006] | 11.8 ± 1
73 | AGAACGACTAAGCAGTGTACATTTTGTATATACAAT [XGTACX_site2831] | 11 ± 0.59
74 | TAAATGTGTATATATTGTACAAATATTAATACATAC [XGTACX_site8102] | 10.8 ± 0.34
75 | AAATTGTTAAAAAGAAGTACATTCTTTTATTTCTTA [XGTACX_site540] | 11.3 ± 0.71
76 | AAAGAACTTAATGCTGCACACAAAAAAAAGGAAAAA [CACACA_site8375] | 10 ± 0.27
77 | TGATATTTTTCCATAGTGCAAAATATAGTAATGTAT | 10 ± 0.2
78 | ATAATGAAGACTTTTTTACACACTTCATATATTATA [CACACA_site8630] | 10.01 ± 0.042
79 | ACAAACTAAAAAAGAAGTACAAATCGTATTAATAAT [XGTACX_site8684] | 11.4 ± 0.82
80 | TTTTTTGAAAATAAAAGTACAAATTTTATATTTAAA [XGTACX_site2758] | 11 ± 0.88
81 | TATTATATATGGAAGTAATAATATATATATATATAT [GTGCAC_negctrl_site63] | 9.8 ± 0.25
82 | AGAAAAAAACGGTACAGTACACATAAACTAATTATT [XGTACX_site8617] | 11.5 ± 0.99
83 | GATTAAATTTGACACTGTACAAAAAATAAAATGAGG [XGTACX_site504] | 11 ± 0.6
84 | ATGAATATAAAATATACACACTTATATATTGAATGA [CACACA_site4274] | 9.725 ± 0.078
85 | GTTAATTCATTAAGGACACACAAAAAAAAAAAAAAA [CACACA_site998] | 10.8 ± 0.79
86 | AAACAACATGGACACGCACACACAAAAAAAGCATGC [CACACA_site73] | 11 ± 0.48
87 | TTAACAAAATTTCCGTGTACGTAAATAAGAACATAG [XGTACX_site7200] | 11.8 ± 0.95
88 | CCAACATAGAGGGGCACACACATATATACATAAAAA [CACACA_site1847] | 10.8 ± 0.65
89 | AGTATACATATATATACACACACATATATATATATA [CACACA_site7883] | 10 ± 0.37
